Test results as given in PubChem BioAssay AID1347120 (National Center for Advancing Translational Sciences (NCATS), 2019).
In all, about 390,000 compounds went through this assay and about 930 (0.24%) were called active. Inconclusive results, whose numbers are uncertain, are shown with a selection of clear calls. Calls follow the shape of the dose curve; as a rule, active = well fitted activation curve with a large enough effect; inconclusive = small, poorly fitted or top-dose-only effect; inactive = no such curve, though single readings can be large or run the other way. Potencies beside an inconclusive call are fits to weak or partial responses and may not hold up.
Potency is read from the fitted curve at half-maximal effect; tags tell the direction and shape of the fitted curve.

Assay: qHTS for Suppressors of FUS Proteinopathy: Primary screen using FUS-linked yeast assay; also: nearly all actives have a fitted effect of over 55% in size;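 as to growth rescue (activation): plate controls were DMSO vehicle for no effect and reference control for full effect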
Details: S. cerevisiae FUS-expressing, OD600, 24 h; Potency: growth rescue; growth rescue (activation): at 76.6 µM (top of the series)
Outline: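 Read-out: OD at 600 nm after 24hr at 30C, reporting rescue of FUS-induced yeast toxicity. Cells at OD 0.005 in galactose (2%) minimal medium; compounds tested in a dilution series; CP55940 titration from 92uM final as control.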
For `O=C(N/N=C/c1cccc(O)c1)c1ccc(-n2cnnn2)cc1`, the Potency was inconclusive: 50.1 µM [activator, single point]. In the case of `CCOC(=O)Cn1c(=O)n(C2CCCCC2)c2nc(-c3c(F)cccc3Cl)nc(C(N)=O)c21`, the Potency is reported as inconclusive: 35.5 µM [activator, partial curve, poor fit]. With `CCOC(=O)c1ccc2[nH]c(C)c(C)c2c1` the “growth rescue (activation)” value was inactive: 8.4%. For `Cc1ccccc1OCCn1c(CCNC(=O)C2CCCCC2)nc2ccccc21`, the “growth rescue (activation)” value was inactive: 11.1%. With `O=C(NCC1CCCO1)c1ccc(COc2ccccc2Br)cc1` (stereo not given) the “growth rescue (activation)” value was inactive: 36.3%. For `O=C1OC[C@@H]2CCCN2C(=O)[C@@H](CC(=O)N(CCO)Cc2ccccc2)C/C=C\C[C@H]1Cc1ccc(F)cc1`, the Potency was inconclusive: 20 µM [activator, partial curve, poor fit]. In the case of `COC(=O)C1=C(C(=O)OC)[C@@H]2N(C)c3ccc(OC)cc3[C@@]23C[C@@H](C(=O)OC)N(C(=O)C2CCC2)C3=N1`, the Potency is reported as inconclusive: 50.1 µM [activator, single point]. With `CCc1ccc(C2=CC(c3c(F)cccc3Cl)n3c(nc4ccccc43)N2)cc1` (stereo not given) the Potency was inconclusive: 50.1 µM [activator, single point]. For `CCc1ccc(OCCn2c(C3CC(=O)N(Cc4ccc(F)cc4)C3)nc3ccccc32)cc1` (stereo not given), the Potency was inconclusive: 31.6 µM [activator, single point]. In the case of `CCOC(=O)[C@]12Cc3c(cc(OC)c(OC)c3OC)[C@H]1N(Cc1ccccc1)C(=O)c1cc(OC)ccc12`, the Potency is reported as inconclusive: 50.1 µM [activator, single point]. With `CC1(C)CCC(C)(C)c2cc(NC(=O)c3ccc(C(=O)O)cc3)ccc21` the Potency was inconclusive: 22.4 µM [activator, partial curve, poor fit]. With `Cc1ccc(-n2c(Cc3cccs3)nnc2SCc2ccc([N+](=O)[O-])cc2)cc1` the Potency was inconclusive: 20 µM [activator, partial curve, poor fit]. In the case of `c1cc(N2CCCC2)ccc1C(c1nnnn1C1CCCCC1)N1CCOCC1` (stereo not given), the Potency is reported as active: 39.8 µM. In the case of `COc1ccc(CCNc2oc(COc3ccccc3F)nc2C#N)cc1`, the “growth rescue (activation)” value is reported as inactive: 25%. For `C[C@H](CO)N1C[C@H](C)[C@@H](CN(C)S(=O)(=O)c2ccc(F)cc2)Oc2c(NC(=O)Nc3ccc(C(F)(F)F)cc3)cccc2C1=O`, the Potency was inconclusive: 50.1 µM [activator, single point]. For `COC(=O)[C@]12C[C@H](CC(=O)N3CCC(c4ccccc4)CC3)C(=O)N(Cc3ccco3)C1=C[C@H](C(C)C)O[C@@H]2C1CC1`, the Potency was inconclusive: 25.1 µM [activator, single point]. For `Cn1c(O)c(N=NC(=S)Nc2ccccc2F)c2cc(S(=O)(=O)N3CCOCC3)ccc21`, the “growth rescue (activation)” value was inactive: -3.46%. In the case of `CCCOc1ccc(C(=O)N/N=C/c2ccc(-c3ccc(S(=O)(=O)Nc4ncccn4)cc3)o2)cc1`, the Potency is reported as inconclusive: 2.24 µM [activator, full curve, poor fit]. With `COc1ccc(NC(=O)CCC(=O)c2cccs2)cc1Cl` the “growth rescue (activation)” value was inactive: 11.2%. With `Cc1oc(-c2ccc(Cl)cc2)nc1CN1CCCC(C(=O)NCc2ccccc2)C1` (stereo not given) the “growth rescue (activation)” value was inactive: 9.58%. With `COc1ccc(C(c2c(NC(=O)c3ccco3)sc(C)c2C)N2CCOCC2)cc1OC` (stereo not given) the Potency was inconclusive: 28.2 µM [activator, single point]. In the case of `C[C@H](CO)N1C[C@H](C)[C@@H](CN(C)S(=O)(=O)c2ccccc2)Oc2c(NC(=O)NC3CCCCC3)cccc2C1=O`, the Potency is reported as active: 31.6 µM. In the case of `C/C(=C\C(=O)c1ccc(Br)cc1)NNC(=O)c1ccccc1`, the Potency is reported as inconclusive: 15.8 µM [activator, partial curve, poor fit]. With `CC1=C(C(=O)N(C(C)C)C(C)C)CC(CC(=O)NCCCCc2ccccc2)C(=O)N1Cc1ccc(F)cc1` (stereo not given) the Potency was inconclusive: 11.2 µM [activator, partial curve]. With `COC(=O)[C@]12C[C@H](CC(=O)N3CCN(C(=O)C4CC4)CC3)C(=O)N(CCc3ccc(OC)c(OC)c3)C1=C[C@H](C(C)C)O[C@@H]2C1CC1` the “growth rescue (activation)” value was inactive: 21.9%. In the case of `COC(=O)c1ccc(N2C(c3cc(OC)cc(OC)c3)=Cc3ccc(OC)cc3C2CC(=O)c2ccco2)cc1` (stereo not given), the Potency is reported as inconclusive: 44.7 µM [activator, single point]. With `Nc1ccc(-c2n[nH]c(=O)c3ccccc23)cc1N` the Potency was inconclusive: 25.1 µM [activator, partial curve, poor fit]. With `CCOc1ccc(S(=O)(=O)NCCc2c(C)[nH]c3c(Cl)cccc23)cc1C` the “growth rescue (activation)” value was inactive: 7.39%. For `CCCCCCCCN1C(=O)[C@H](CC(=O)NCCCCc2ccccc2)C[C@@]2(C(=O)OCC)CCCC=C12`, the “growth rescue (activation)” value was inactive: 43.4%. With `CCOc1ccc2nc(N(CCN(C)C)C(=O)c3cc4ccccc4cc3OC)sc2c1` the Potency was inconclusive: 10 µM [activator, partial curve, poor fit]. For `CCCCN(C=O)c1c(CC)nc2ccc(C(=O)Nc3cc(-c4ccccc4)ccc3OC)cn12`, the Potency was inconclusive: 28.2 µM [activator, single point]. In the case of `O=C(c1ccoc1)N1CCCC(CO)(CCCc2ccccc2)C1` (stereo not given), the growth rescue (activation) is reported as inconclusive: 46.2% [activator]. For `CCCCC[C@@H]1C=C(C(=O)O)[C@H](c2ccc(CC)cc2)N1S(=O)(=O)c1ccc(C)cc1`, the “growth rescue (activation)” value was inactive: 9.58%. In the case of `COC(=O)[C@]12CCCCC=C1N(Cc1ccc(OC)cc1)C(=O)[C@@H]2CC(=O)NCCCCc1ccccc1`, the Potency is reported as inconclusive: 8.91 µM [activator, partial curve]. In the case of `Cc1ccc(CNC(=O)c2cc(-c3ccc(C)cc3)nc3n[nH]c(-c4cccc([N+](=O)[O-])c4)c23)cc1`, the “growth rescue (activation)” value is reported as inactive: -14.9%. In the case of `COC(=O)[C@]12CCCCC=C1N(Cc1ccc(OC)cc1)C(=O)[C@@H]2CC(=O)NCCc1ccccc1OC`, the Potency is reported as inconclusive: 20 µM [activator, single point]. With `Cc1csc2c(N3CCN(C(=O)c4ccc(C(C)(C)C)cc4)CC3)ncnc12` the Potency was inconclusive: 50.1 µM [activator, single point]. In the case of `COc1ccc(OC)c(N2C(=O)CC(Cc3cc(C)cc(C)c3)C2=O)c1` (stereo not given), the Potency is reported as inconclusive: 39.8 µM [activator, single point]. For `O=C(Nc1nc2ccc(F)cc2s1)c1nc(S(=O)(=O)Cc2ccccc2F)ncc1Cl`, the Potency was inconclusive: 39.8 µM [activator, partial curve, poor fit]. With `CC(=O)Nc1cccc(NC(=O)Cc2cccs2)c1` the “growth rescue (activation)” value was inactive: -10.8%. With `Cc1cc(C)c(NC(=O)Cn2c(=O)n(CCC(=O)NCc3ccccc3Cl)c(=O)c3sccc32)c(C)c1` the “growth rescue (activation)” value was inactive: 0.322%. In the case of `O=C(CSc1cn(CCNC(=O)c2cccc(C(F)(F)F)c2)c2ccccc12)Nc1ccc2c(c1)OCCO2`, the Potency is reported as inconclusive: 50.1 µM [activator, single point]. For `COc1ccccc1CNC(=O)C[C@@H]1C[C@H]2c3cc(NC(=O)c4ccc5c(c4)OCO5)ccc3O[C@H]2[C@@H](CO)O1`, the Potency was inconclusive: 50.1 µM [activator, single point]. In the case of `COc1ccc(C(=O)Nc2ccc3nc(SCC(=O)N(C)c4ccccc4)sc3c2)cc1`, the Potency is reported as inconclusive: 28.2 µM [activator, single point]. In the case of `CC(C)c1ccc(OCc2ccc(C(=O)N3CCN(c4ccccn4)CC3)cc2)cc1`, the Potency is reported as inconclusive: 28.2 µM [activator, single point]. For `COc1ccc2sc(-c3ccc(N(C)C)cc3)c(C#CCCO)c2c1`, the Potency was inconclusive: 35.5 µM [activator, single point]. In the case of `C[C@@H]1CN([C@@H](C)CO)C(=O)c2ccccc2-c2ccccc2CO[C@@H]1CN(C)S(=O)(=O)c1ccc(C(F)(F)F)cc1`, the Potency is reported as inconclusive: 28.2 µM [activator, single point]. In the case of `Cc1ccc(Cl)cc1N1CCN(C(=O)CSc2cc(=O)n(C)c3ccccc23)CC1`, the Potency is reported as inconclusive: 31.6 µM [activator, single point]. For `COc1cccc(CNS(=O)(=O)c2cc3c(cc2Br)CC(C)N3C(C)=O)c1` (stereo not given), the “growth rescue (activation)” value was inactive: -0.789%. With `CC(=O)Nc1cccc(C(=O)Nc2ccccc2N2CCOCC2)c1` the “growth rescue (activation)” value was inactive: 11.6%. In the case of `CCCC(=O)N(c1ccc2oc(=O)sc2c1)S(=O)(=O)c1cccs1`, the Potency is reported as inconclusive: 35.5 µM [activator, partial curve, poor fit]. In the case of `CC1=C(C(=O)Nc2cc(Cl)ccc2C)C(c2sccc2C)n2ncnc2N1` (stereo not given), the “growth rescue (activation)” value is reported as inactive: -1.49%. For `CCCc1oc(C(=O)O)cc1CN`, the Potency was inconclusive: 7.08 µM [activator, full curve, poor fit]. With `Cc1ccc2c(c1)[C@H]1[C@H](CO2)[C@H](c2ccccc2)[C@]2(C)C(=O)Nc3ccccc3C(=O)N12` the Potency was inconclusive: 50.1 µM [activator, single point]. For `COc1ccc(/C=N/Nc2nc(Nc3ccccc3)nc(N3CCCCC3)n2)cc1OC`, the Potency was inconclusive: 35.5 µM [activator, single point]. With `Cc1cccc(NS(=O)(=O)c2cc(C(=O)N3CCc4ccccc4C3)ccc2Cl)c1C` the Potency was inconclusive: 31.6 µM [activator, partial curve, poor fit]. With `CC1CCN(c2ncnc3c2c(-c2ccccc2)cn3-c2ccc(Br)cc2)CC1` the “growth rescue (activation)” value was inactive: -14%. For `Cc1ccc(C(=O)c2c3ccc(N)cc3nn2CCC(N)=O)cc1`, the Potency was inconclusive: 50.1 µM [activator, single point]. In the case of `COc1ccc(C2=Nc3ccccc3N(C(=O)c3ccc(C(F)(F)F)cc3)C2C(=O)Nc2ccc3c(c2)OCCO3)cc1` (stereo not given), the Potency is reported as inconclusive: 28.2 µM [activator, partial curve, poor fit]. For `COc1ccccc1-c1noc(CCCC(=O)Nc2cccc(C(F)(F)F)c2)n1`, the Potency was inconclusive: 31.6 µM [activator, single point].
